# Measurements published in PubChem BioAssay AID1745853 (National Center for Advancing Translational Sciences (NCATS), 2022).
# The list shows a part of the results. These are further read-outs of the screen, such as a control signal, another cell line or another target. No call is given for them.
# Columns and labels:
# Test in all cases: Primary Screen for Target Class Profiling of Small Molecule Inhibitors of Methyltransferases
# [1] = target: Glycine N-methyltransferase (Homo sapiens) (UniProt Q14749); conditions: purified enzyme, MTase-Glo SAH luminescence; measured here: GNMT inhibition; at 40 µM; stronger effect = lower value
# Outline: (§1)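 Each enzyme was assayed with SAM and its substrate. SAH formation detected by MTase-Glo luminescence; single-point 40 uM screen[…].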
# [2] = target: Guanidinoacetate N-methyltransferase (Homo sapiens) (UniProt Q14353); conditions: purified enzyme, MTase-Glo SAH luminescence; measured here: GAMT inhibition; at 40 µM; stronger effect = lower value
# Outline: as §1
# [3] = target: Histamine N-methyltransferase (Homo sapiens) (UniProt P50135); conditions: purified enzyme, MTase-Glo SAH luminescence; measured here: HNMT inhibition; at 40 µM; stronger effect = lower value
# Outline: as §1
# [4] = target: Nicotinamide N-methyltransferase (Homo sapiens) (UniProt P40261); conditions: purified enzyme, MTase-Glo SAH luminescence; measured here: NNMT inhibition; at 40 µM; stronger effect = lower value
# Outline: as §1
# [5] = target: Phenylethanolamine N-methyltransferase (Homo sapiens) (UniProt P11086); conditions: purified enzyme, MTase-Glo SAH luminescence; measured here: PNMT inhibition; at 40 µM; stronger effect = lower value
# Outline: as §1
# % is set by controls: 0 for no effect and ±100 for the full control effect.
SMILES,"activity change, negative = inhibition [1]","activity change, negative = inhibition [2]","activity change, negative = inhibition [3]","activity change, negative = inhibition [4]","activity change, negative = inhibition [5]"
COc1ccc(C)cc1Nc1nc2c(S(=O)(=O)c3ccccc3)nnn2c2ccccc12,-3.15%,-1.51%,-0.84%,-6.98%,-6.33%
COc1ccc(CN2C(=O)c3c(-n4cccc4)c4cc(C)ccc4n3CC2(C)C(=O)NC2CCC(C)CC2)cc1 (stereo not drawn),-1.7%,3.14%,3.81%,0.752%,-1.72%
COc1ccccc1C(=O)Nc1cccc(NC(=O)c2cccc(C)c2)c1,-6.53%,-8.26%,2.3%,-21.3%,-6.74%
Cc1ccccc1CNC[C@H]1O[C@@H]2C[C@@H](CC(=O)NCc3nccn3C)O[C@@H]2[C@@H]1O,-4.41%,-8.08%,-2.72%,-15.1%,-7.34%
CCOc1ccc(C(=O)CSc2nnc3n(C)c(=O)c4ccc(C(=O)NC5CCCC5)cc4n23)cc1,-3.16%,-2.95%,1.18%,3.96%,-2.19%
CCn1nc(CNC(=O)c2c(F)cccc2Cl)c2ccccc21,13.4%,3.58%,13.4%,10.3%,12.8%
CCn1ncc(N2CCCC(CC(=O)Nc3cc(OC)cc(OC)c3)C2)cc1=O (stereo not drawn),-3.05%,3.48%,3.37%,-6.04%,3.01%
Cn1cccc1CN1CC(F)(F)C[C@H]1c1nnc(C2CC2)o1,-11.5%,-8.98%,-3.82%,-11.9%,-4.88%
O=C(c1ccc(Cl)cc1)N1CCCC2(CNc3ncccc3[S+](=O)([O-])N2)C1 (stereo not drawn),-0.153%,-0.562%,1.62%,-0.988%,2.52%
CCc1cccc(NC(=O)Cn2c(=O)oc3cc(S(=O)(=O)N4CC(C)CC(C)C4)ccc32)c1 (stereo not drawn),-8.11%,0.227%,5.16%,-0.118%,-38.3%
O=C(c1ccc2c(c1)N(C(=O)c1ccccc1)CC2)N1CCN(c2ccc(Cl)cc2)CC1,-2.57%,-3.38%,-2.77%,-0.383%,2.03%
COCCCNC(=O)C1(C)Cn2nc(-c3ccccc3)cc2C(=O)N1c1ccc(C)cc1C (stereo not drawn),0.004%,1.16%,-3.79%,1.98%,-5.36%
Cc1cccc(/C=N/Nc2cc(N3CCOCC3)n3nc(-c4ccncc4)cc3n2)c1,1.36%,5.33%,0.014%,-25.9%,-8.31%
CN1C(=O)c2cc(C(=O)NCc3cccc(F)c3)nn2CC1(C)C(=O)NC1CCCC1 (stereo not drawn),-4.5%,0.008%,-1.69%,-4.08%,-1.84%
COCCN1C(=O)c2c(NC(C)=O)c3cc(F)ccc3n2CC1(C)C(=O)NC1CCCCC1 (stereo not drawn),-3.89%,-3.88%,3.89%,-6.28%,-5.48%
CN(Cc1cccnc1)C(=O)c1n[nH]c2c1CN(Cc1cccnc1)CC2,-8.19%,-8.39%,-4.33%,-15.6%,-9.14%
O=C(NCc1ccncc1)c1ccc(-c2cccs2)nc1,12.3%,4.5%,11.7%,6.58%,6.91%
CCOc1ccc(N(C(=O)c2ccccc2F)S(=O)(=O)c2ccc3c(c2)n(C)c(=O)n3C)cc1,-17.1%,2.82%,-0.885%,-9.15%,-3.15%
CC(C)CNC(=O)c1ccc2c(=O)n(C(C)C)c3nn(CC(=O)N(C)c4ccccc4)c(=O)n3c2c1,2.12%,5.03%,5.96%,-2.31%,0.303%

SMILES,"activity change, negative = inhibition [1]","activity change, negative = inhibition [2]","activity change, negative = inhibition [3]","activity change, negative = inhibition [4]","activity change, negative = inhibition [5]"
O=C1CCCC2=C1C1(CCSCC1)N=C(Nc1nc3ccccc3o1)N2,–,-3.46%,–,-11.1%,-5.56%
CNS(=O)(=O)CCNc1nc(-c2ccccn2)nc2c1c(C)nn2C,-10.8%,-2.42%,-5.98%,-6.78%,-7.13%
Cc1ccc(CNC(=O)c2cc3n(n2)CC(C)(C(=O)NCCC(C)C)N(C)C3=O)cc1 (stereo not drawn),2.14%,3.67%,1.35%,8.06%,1.12%
CCCn1c(=O)c2ccc(Cl)cc2n2c(=O)n(CC(=O)NCc3ccc(C)cc3)nc12,4.54%,0%,5.97%,4.35%,3.95%
CCCN1C(=O)c2cc(-c3ccccc3)nn2CC1(C)C(=O)NCc1ccccc1OC (stereo not drawn),-2.85%,2.18%,0.512%,-4.03%,-2.04%
CC1(C(=O)NCc2ccc(F)cc2)Cn2cnc(C(=O)Nc3ccc4c(c3)OCCO4)c2C(=O)N1C1CC1 (stereo not drawn),-5.76%,0%,0.635%,-3.55%,-4.04%
CC(C)CNC(=O)c1ccc2c(=O)n(Cc3ccccc3)c3nn(Cc4cccc(Cl)c4)c(=O)n3c2c1,0.852%,5.78%,1.93%,0.658%,1.64%
Cc1cc(C)c(NS(=O)(=O)c2ccc3c(c2)n(C)c(=O)n3C)c(C)c1,-6.08%,2.2%,-9.52%,-35.6%,-6.45%
CC1CCC(NC(=O)Cn2c(=O)oc3cc(S(=O)(=O)NCc4ccccc4)ccc32)CC1 (stereo not drawn),-5.07%,4.84%,-4.29%,-2.51%,-10.4%
CC1CC(C)CN(CCCN2C(=O)c3nc4ccccc4n3CC2(C)C(=O)NC2CCCCCC2)C1 (stereo not drawn),-4.11%,4.13%,-0.445%,3.5%,-2.17%
CCCN1C(=O)c2c(C(=O)NCCc3ccccc3)ncn2CC1(C)C(=O)NCc1ccc(OC)cc1 (stereo not drawn),1.34%,0.294%,-0.868%,4.66%,3.9%
CC1(C(=O)NC2CCCC2)Cn2c(ccc2-c2ccco2)C(=O)N1c1ccc2c(c1)OCCO2 (stereo not drawn),-6.64%,0%,8.64%,6.92%,1.4%
CN1C(=O)CC[C@]2(C(=O)NCc3ccco3)CCCC[C@@H]12,-2.51%,-2.79%,1.86%,-2.77%,0.365%
Cn1c(=O)c2ccc(C(=O)NC3CCCC3)cc2n2c(=O)n(Cc3c(F)cccc3Cl)nc12,1.46%,5.47%,0.466%,2.85%,1.1%
COc1cccc(CNc2nc3c(-c4ccccc4)nnn3c3ccccc23)c1,0.118%,0%,4.52%,4.97%,-1.21%
COc1cccc(CN2C(=O)c3cc4ccc(OC)cc4n3CC2(C)C(=O)NC2CCCCC2)c1 (stereo not drawn),5.49%,5.28%,5.42%,-0.351%,2.15%
CCOCCCNC(=O)c1cc2c(=O)[nH]c(-c3ccccc3)cn2n1,-6.53%,-4.27%,-4.38%,-3.96%,-20.1%
N#Cc1ccc2[nH]cc(CCCCN3CCN(c4ccc5oc(C(N)=O)cc5c4)CC3)c2c1,4.58%,6.01%,-27.3%,-50.9%,-10.1%
COc1cccc(CN2CCC(n3cc[nH]c3=O)CC2)c1,-5.73%,-8.43%,-6.4%,-15.1%,-7.17%
